Test results: the antibiotic and cytotoxicity screens of Wong et al. (2023)
Some of the results follow.

Key:
HSkMC = human skeletal muscle cells; experiment: cytotoxicity call (relative viability < 0.9); conditions: 10 µM
S. aureus RN4220 = experiment: growth inhibition call (relative growth <= 0.2); conditions: 50 µM

| Compound | cytotoxicity call (HSkMC) | growth inhibition call (S. aureus RN4220) |
| --- | --- | --- |
| C[C@H]1CN([C@@H](C)CO)C(=O)Cc2cc(NC(=O)NC3CCCCC3)ccc2O[C@H]1CN(C)S(C)(=O)=O | inactive | inactive |
| CC(C)CN1C[C@H](C(=O)O)CC1=O | inactive | inactive |
| COc1ccc(S(=O)(=O)Nc2ccc3c(c2)C(=O)N([C@H](C)CO)C[C@@H](C)[C@@H](CN(C)C(=O)C2CCCCC2)OCCCC[C@H](C)O3)cc1 | inactive | inactive |
| C[C@H]1CCCCO[C@@H](CN(C)C(=O)NC2CCCCC2)[C@@H](C)CN([C@@H](C)CO)C(=O)c2cc(NC(=O)NC3CCCCC3)ccc2O1 | inactive | inactive |
| C=CC1=C(C(=O)O)N2C(=O)[C@@H](NC(=O)/C(=N\OCC(=O)O)c3csc(N)n3)[C@H]2SC1 | inactive | active |
| Cc1ccc(S(=O)(=O)Nc2ccc3c(c2)CC(=O)N([C@@H](C)CO)C[C@@H](C)[C@H](CN(C)Cc2ccc(-c4ccccc4)cc2)O3)cc1 | inactive | inactive |
| C/C=C/c1ccc(OC)cc1 | inactive | inactive |
| C[C@H]1CCCCO[C@@H](CN(C)Cc2ccncc2)[C@@H](C)CN([C@@H](C)CO)C(=O)c2cc(NC(=O)Nc3ccc(F)cc3)ccc2O1 | inactive | inactive |
| COc1ccc(CN(C)C[C@@H]2Oc3c(NC(=O)Nc4cccc5ccccc45)cccc3C(=O)N([C@@H](C)CO)C[C@@H]2C)cc1 | inactive | inactive |
| COc1ccc(S(=O)(=O)N2C[C@H](O)COC[C@H]3O[C@@H](CC(=O)NCCCN(C)C)CC[C@@H]32)cc1 | inactive | inactive |
| COc1ccc(C(=O)NCC#N)cc1 | inactive | inactive |
| C[C@@H]1CN([C@H](C)CO)C(=O)c2cc(NS(C)(=O)=O)ccc2O[C@@H]1CN(C)C(=O)Nc1ccccc1 | inactive | inactive |
| NC(=O)NCC#Cc1ccc2c(c1)[C@]1(C(=O)N2)[C@H](C(=O)N2CCN(c3ncccn3)CC2)[C@H]2C(=O)O[C@H](c3ccccc3)[C@H](c3ccccc3)N2[C@@H]1c1ccccc1OCCO | inactive | inactive |
| C[C@@H]1CN([C@@H](C)CO)C(=O)c2cc(NS(=O)(=O)c3cccs3)ccc2O[C@@H](C)CCCCO[C@H]1CN(C)Cc1ccc(C(F)(F)F)cc1 | inactive | inactive |
| CC(C)NC(=O)N(C)C[C@@H]1Oc2ccc(NC(=O)Cn3cnnn3)cc2C(=O)N([C@H](C)CO)C[C@H]1C | inactive | inactive |
| O=c1[nH]c(=O)c2ccccc2o1 | inactive | inactive |
| COC(=O)[C@H](Cc1ccccc1)N1CC2=C[C@@H]([C@@H](O)CCn3cc(C(=O)NO)nn3)n3c(=O)n(C)c(=O)n3[C@@H]2[C@@H](C2CC2)O1 | inactive | inactive |
| COc1cccnc1N | inactive | inactive |
| C[C@@H]1CN([C@@H](C)CO)S(=O)(=O)c2ccc(C#CC3CCCCC3)cc2O[C@@H]1CN(C)C(=O)Cc1ccncc1 | inactive | inactive |
| CCNC(=O)C[C@H]1CC[C@@H]2[C@H](COC[C@@H](O)CN2C(=O)Nc2c(C)noc2C)O1 | inactive | inactive |
| Cc1ccc(S(=O)(=O)Nc2ccc3c(c2)C(=O)N([C@H](C)CO)C[C@H](C)[C@@H](CN(C)Cc2ccc(C(F)(F)F)cc2)O3)cc1 | inactive | inactive |

| Compound | cytotoxicity call (HSkMC) | growth inhibition call (S. aureus RN4220) |
| --- | --- | --- |
| COc1ccc(CN(C)C[C@@H]2Oc3ccc(NC(=O)Nc4ccc(C(F)(F)F)cc4)cc3CC(=O)N([C@H](C)CO)C[C@H]2C)cc1 | inactive | inactive |
| Cc1ccc(S(=O)(=O)n2cc([C@@H]3CC(=O)N(C(=O)OCc4ccccc4)[C@@H]3C(=O)Nc3cccc4cccnc34)c3ccccc32)cc1 | inactive | inactive |
| O=C(CO)c1ccccc1 | inactive | inactive |
| O=C(C[C@@H]1C[C@@H]2c3cc(NS(=O)(=O)c4ccc(F)cc4)ccc3O[C@@H]2[C@H](CO)O1)NCc1ccc(Oc2ccccc2)cc1 | inactive | inactive |
| C[C@@H]1CN([C@H](C)CO)C(=O)c2cccc(NS(=O)(=O)c3cn(C)cn3)c2O[C@@H]1CN(C)C(=O)Nc1ccc2c(c1)OCO2 | inactive | inactive |
| O=C(N[C@@H]1CC[C@@H](CCn2cc(C3(O)CCCC3)nn2)O[C@H]1CO)C1CCOCC1 | inactive | inactive |
| COc1ccc(NC(=O)Nc2cccc3c2O[C@@H](CN(C)Cc2ccc(C(F)(F)F)cc2)[C@@H](C)CN([C@@H](C)CO)C3=O)cc1 | inactive | inactive |
| CNC(=NC#N)NCCSCc1nc[nH]c1C | inactive | inactive |
| C[C@@H]1CN([C@H](C)CO)S(=O)(=O)c2ccc(C#Cc3ccc(F)cc3)cc2O[C@@H]1CN(C)S(=O)(=O)c1ccc(F)cc1 | inactive | inactive |
| C[C@@H]1CCCCO[C@@H](CN(C)C(=O)CCC(F)(F)F)[C@@H](C)CN([C@H](C)CO)C(=O)c2cc(NC(=O)Nc3ccc(F)cc3)ccc2O1 | inactive | inactive |
| CNC(=O)c1ccc2c(c1)OCO2 | inactive | inactive |
| C[C@H](CO)N1C[C@H](C)[C@H](CN(C)C(=O)Nc2ccc3c(c2)OCO3)Oc2ccc(NS(=O)(=O)c3cn(C)cn3)cc2CC1=O | inactive | inactive |
| Cn1c(=O)c(=O)n(C)c2cc(S(=O)(=O)CCC(=O)NCc3ccccc3)ccc21 | inactive | inactive |
| C[C@@H]1CN([C@H](C)CO)C(=O)c2cc(NS(=O)(=O)c3cccs3)ccc2O[C@@H]1CN(C)C(=O)Nc1cccc2ccccc12 | inactive | inactive |
| CC1OC(OC2C(Oc3cc(O)c4c(=O)cc(-c5ccc(O)cc5)oc4c3)OC(CO)C(O)C2O)C(O)C(O)C1O (centres undefined) | inactive | inactive |
| C=C(C)C1CCC2(C(=O)O)CCC3(C)C(CCC4C5(C)CCC(O)C(C)(C)C5CCC43C)C12 (centres undefined) | inactive | inactive |
| C[C@H](CO)N1C[C@H](C)[C@H](CN(C)Cc2ccncc2)Oc2c(NS(=O)(=O)c3cccs3)cccc2C1=O | inactive | inactive |
| C[C@H](CO)N1C[C@H](C)[C@@H](CN(C)CC2CCCCC2)OCc2ccccc2-c2c(n(C)c3ccccc23)C1=O | inactive | inactive |
| C[C@H](CO)N1C[C@H](C)[C@@H](CN(C)C(=O)C2CCCCC2)OCCCC[C@H](C)Oc2ccc(NC(=O)Nc3ccccc3)cc2C1=O | inactive | inactive |
| C[C@H]1CCCCO[C@H](CN(C)Cc2ccccc2)[C@@H](C)CN([C@@H](C)CO)C(=O)c2cc(NC(=O)Nc3ccccc3)ccc2O1 | inactive | inactive |
| COc1cccc(S(=O)(=O)N2C[C@H](O)COC[C@@H]3O[C@H](CC(=O)NCCCN4CCOCC4)CC[C@H]32)c1 | inactive | inactive |

| Compound | cytotoxicity call (HSkMC) | growth inhibition call (S. aureus RN4220) |
| --- | --- | --- |
| N=C(N)NCCCCNC(=N)N.O=S(=O)(O)O | inactive | inactive |
| CN(C)C(=O)C[C@@H]1C=C[C@H](NC(=O)C2CC2)[C@@H](CO)O1 | inactive | inactive |
| CC(=O)O[C@@H]1[C@H](OC(C)=O)N(C)C(=O)N1C | inactive | inactive |
| C[C@H]1CCCCO[C@H](CN(C)C(=O)NC2CCCCC2)[C@@H](C)CN([C@@H](C)CO)C(=O)c2cc(NC(=O)NC3CCCCC3)ccc2O1 | inactive | inactive |
| C[C@H](CO)N1C[C@H](C)[C@H](CN(C)Cc2ccc(C(F)(F)F)cc2)OCCCC[C@H](C)Oc2ccc(N(C)C)cc2C1=O | inactive | inactive |
| COC(=O)CCCCCNc1n[nH]c(=O)[nH]c1=O | inactive | inactive |
| C[C@@H]1CCCCO[C@H](CN(C)S(=O)(=O)c2ccccc2)[C@H](C)CN([C@@H](C)CO)C(=O)c2cc(NC(=O)Nc3ccccc3)ccc2O1 | inactive | inactive |
| COc1ccc2c3c([nH]c2c1)[C@@H](CO)N(C[C@]13CCN(CC1)C(=O)Nc1cccc(c1)F)C(=O)c1ccc(cc1)F | inactive | inactive |
| O=C(O)CC(O)(CC(=O)O)C(=O)O | inactive | inactive |
| COC(=O)COc1nsnc1N1CCOCC1 | inactive | inactive |
| C[C@@H]1CN([C@@H](C)CO)C(=O)Cc2cc(NC(=O)C3CC3)ccc2O[C@H]1CN(C)Cc1ccc(Oc2ccccc2)cc1 | inactive | inactive |
| O=S(=O)(O)NC1CCCCC1 | inactive | inactive |
| CC(C)NC(=O)Nc1ccc2c(c1)C(=O)N([C@@H](C)CO)C[C@H](C)[C@@H](CN(C)S(=O)(=O)c1ccc(F)cc1)O2 | inactive | inactive |
| O=C(C[C@H]1CC[C@H]2[C@@H](COC[C@H](O)CN2S(=O)(=O)c2cccc(Cl)c2)O1)NCCCN1CCOCC1 | inactive | inactive |
| CN(Cc1ccc(C(C)(C)C)cc1)Cc1cccc2ccccc12 | inactive | inactive |
| CC(C)(O)C1CCC(C)(C2C(O)CC3(C)C4CC(OC5OC(CO)C(O)C(O)C5O)C5C(C)(C)C(OC6OCC(O)C(O)C6O)CCC56CC46CCC23C)O1 (centres undefined) | inactive | inactive |
| CC(C)NC(=O)N(C)C[C@H]1Oc2ccc(NS(=O)(=O)c3ccc(F)cc3)cc2C(=O)N([C@@H](C)CO)C[C@H]1C | inactive | inactive |
| C[C@@H]1CN([C@@H](C)CO)C(=O)Cc2cc(NC(=O)CCN3CCOCC3)ccc2O[C@H]1CN(C)S(=O)(=O)c1cn(C)cn1 | inactive | inactive |
| C[C@@H]1O[C@@H](O[C@H]2[C@H](O[C@H]3[C@H](O)[C@@H](O[C@@H]4O[C@H](CO)[C@@H](O[C@@H]5O[C@H](CO)[C@H](O)[C@H]5O)[C@H](O)[C@H]4O)[C@H](O[C@H]4CC[C@]5(C)[C@H]6CC[C@]78OC[C@@]9(CCC(C)(C)C[C@@H]97)[C@H](O)C[C@@]8(C)[C@]6(C)CC[C@H]5C4(C)C)O[C@@H]3C(=O)O)O[C@H](CO)[C@H](O)[C@@H]2O)[C@H](O)[C@H](O)[C@H]1O | inactive | inactive |
| CNC[C@@H]1Oc2ccc(NC(=O)Cn3cnnn3)cc2C(=O)N([C@@H](C)CO)C[C@H]1C | inactive | inactive |
